# In PMC4336329 (PLoS ONE, 2015):
# Hit rate of the full screen: of about 310,000 compounds, about 2,200 (0.71%) showed an effect of 50% or more. The effect is printed as a negative number. Some of the results follow.
# Molecular target: human ether-à-go-go-related gene (hERG) potassium channel (human, UniProt Q12809)
# Test: primary screen, population patch clamp on CHO cells stably expressing hERG
# Sequence of human ether-à-go-go-related gene (hERG) potassium channel (Q12809 whole entry, looked up): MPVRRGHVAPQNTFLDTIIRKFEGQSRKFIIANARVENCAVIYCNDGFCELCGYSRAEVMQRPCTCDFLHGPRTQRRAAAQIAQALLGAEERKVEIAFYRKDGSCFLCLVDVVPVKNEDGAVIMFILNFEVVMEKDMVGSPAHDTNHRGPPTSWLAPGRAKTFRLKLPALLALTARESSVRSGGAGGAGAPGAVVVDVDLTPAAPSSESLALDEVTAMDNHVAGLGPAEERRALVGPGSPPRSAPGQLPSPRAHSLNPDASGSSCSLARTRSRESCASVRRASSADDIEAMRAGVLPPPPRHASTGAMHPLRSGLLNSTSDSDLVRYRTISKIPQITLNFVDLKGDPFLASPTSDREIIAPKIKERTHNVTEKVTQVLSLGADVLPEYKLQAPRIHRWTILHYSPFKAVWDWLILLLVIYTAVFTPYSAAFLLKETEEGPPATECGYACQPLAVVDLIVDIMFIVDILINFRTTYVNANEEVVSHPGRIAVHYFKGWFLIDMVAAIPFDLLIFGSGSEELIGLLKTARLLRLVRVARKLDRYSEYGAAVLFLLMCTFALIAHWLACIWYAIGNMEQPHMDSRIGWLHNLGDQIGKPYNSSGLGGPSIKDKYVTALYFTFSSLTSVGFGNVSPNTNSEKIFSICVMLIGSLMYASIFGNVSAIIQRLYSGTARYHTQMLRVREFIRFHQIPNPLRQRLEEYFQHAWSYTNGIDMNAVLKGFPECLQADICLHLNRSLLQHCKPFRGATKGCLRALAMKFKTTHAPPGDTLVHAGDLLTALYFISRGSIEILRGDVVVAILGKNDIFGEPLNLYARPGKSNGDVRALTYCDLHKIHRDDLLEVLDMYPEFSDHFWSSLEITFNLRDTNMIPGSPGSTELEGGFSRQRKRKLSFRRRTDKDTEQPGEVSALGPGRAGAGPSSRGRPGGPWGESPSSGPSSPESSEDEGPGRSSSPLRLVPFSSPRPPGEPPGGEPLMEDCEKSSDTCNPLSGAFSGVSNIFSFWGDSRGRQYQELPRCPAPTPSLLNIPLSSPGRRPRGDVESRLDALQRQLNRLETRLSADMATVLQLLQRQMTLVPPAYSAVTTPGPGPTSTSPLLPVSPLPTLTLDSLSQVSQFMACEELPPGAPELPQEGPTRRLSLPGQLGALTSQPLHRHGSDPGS
row,Compound,"hERG current change (%, negative = inhibition) at 1uM [%]"
1,N#Cc1cccc(Nc2c3c(nc4ccccc24)CCC3)c1,-18
2,CC1(C)CC(=O)C(N=Nc2cccnc2)=C(O)C1,6.55
3,CC1CCC(C(C)C)C(OC(=O)Cn2c(-c3ccc(F)cc3)[n+](C)c3ccccc32)C1.[Cl-] (stereo not shown),-53.9
4,O=c1[nH]c(=O)n(Cc2ccccc2)c(O)c1C=NCCCn1ccnc1,0.0049
5,O=C(CN(C(=O)CSc1nc2ccccc2o1)c1ccccc1)NC1CCCCC1,8.04
6,C/C=C/C(=O)OCC(=O)Nc1nc2ccc(C)cc2s1,0.215
7,Cc1cc(C)n2nc(SCC(=O)c3cc(C)n(-c4cc(C)on4)c3C)nc2n1,-20.2
8,CC(=O)Nc1c(C(N)=O)oc2ccc(Cl)cc12,7.95
9,COC(=O)C1=CN(Cc2cccs2)C=C(C(=O)OC)C1c1cccc(Cl)c1,13.4
10,Oc1ccccc1N1CCN(c2nc(-c3cccs3)nc3ccccc23)CC1,7.46
11,CS(=O)(=O)N(CC(=O)N1CCc2ccccc2C1)c1cccc([N+](=O)[O-])c1,2.04
12,C/C(=N\NC(=O)c1cccnc1)c1ccc(-n2ccnc2)cc1,-12.7
13,COc1ccc(-c2nc(CS(=O)(=O)CC(=O)NC3CCCCC3C)c(C)o2)cc1 (stereo not shown),15.5
14,CSc1nsc(SCC(=O)Nc2cccc(C(=O)O)c2)n1,5.11
15,CN(C(=O)C(Cl)Cl)c1ccc(OC(=O)c2ccco2)cc1,16.6
16,Cc1cc2ncc(C(N)=O)cn2n1,6.64
17,N#Cc1ccccc1CSc1nc(O)cc(=O)[nH]1,15.5
18,COc1ccc(/C=N/NC(=O)c2cc3cc(OC)c(OC)cc3[nH]2)cc1,4.63
19,Cc1ccc(NC(=O)Nc2ccon2)cc1Cl,12.6
20,CCOC(=O)c1c(CC(C)C)csc1NC=O,16
21,Oc1c(Br)cc(/C=N/n2c(-c3ccccc3)n[nH]c2=S)c(O)c1Br,11.3
22,CC(NC(=O)c1cccc(Cn2cc([N+](=O)[O-])cn2)c1)c1ccc(C(C)(C)C)cc1 (stereo not shown),-1.58
23,CCC(C)NC(=O)/C=C1\Sc2ccccc2NC1=O (stereo not shown),2.98

row,Compound,"hERG current change (%, negative = inhibition) at 1uM [%]"
1,O=C(N/N=C\c1cccc(OC(=O)c2ccco2)c1)c1ccc2c(c1)OCO2,-6.14
2,CCCCCCCNC(=O)CC(NS(=O)(=O)c1ccc(NC(C)=O)cc1)C(C)C (stereo not shown),9.01
3,Cc1ccc(C)c(C(=O)COC(=O)c2cc([N+](=O)[O-])ccc2N2CCOCC2)c1,8.61
4,Cc1cc(-c2ccccc2)n(-c2ccc(C(=O)NC(C)C)cc2)n1,17.8
5,CCOC(=O)c1cnc2ccc(OCC)cc2c1N1CCN(c2ccccc2OC)CC1,7.97
6,Cc1cccc(NC(=O)C2CCCN(C(=O)Nc3ccc(F)cc3)C2)c1 (stereo not shown),10.6
7,Cn1c(=O)n(CC(=O)[O-])c(=O)c2c1nc1n2CCS1,12.9
8,O=C(Nc1cccnc1)c1ccc(COCC(F)(F)F)cc1,10.3
9,COc1ccc(CN2CCNC(=O)C2CC(=O)N(C)CCC2CCOCC2)c(OC)c1 (stereo not shown),12.8
10,CC(C)(C)C(=O)N1CCN(c2ncnc3scc(-c4ccccc4)c23)CC1,6.67
11,O=C(NCc1ccccc1)c1ccco1,4.15
12,O=C(CSc1nnnn1-c1ccc2c(c1)CCC2)NCc1cccs1,10
13,CNC(=O)[C@H]1O[C@@H](n2cnc3c(NCc4cccc(I)c4)nc(Cl)nc32)[C@H](O)[C@@H]1O,10.4
14,CCOc1cc2[nH]c(=S)n(Cc3ccc(C)o3)c(=O)c2cc1OCC,-3.56
15,COc1cccc2c1cc1c(=O)n(CC(=O)N3CCCCCC3)nc(C)n12,8.14
16,CCC1CCCCN1CCCNC(=O)CNC(=O)Cn1ccc2ccccc2c1=O (stereo not shown),12.3
17,C=CCn1c(N)c(C(=O)N2CCN(C)CC2)sc1=S,-4.41
18,C#CCNC(=O)C1=C[C@@H](c2coc3ccccc3c2=O)C[C@@H](OCCCCO)O1,15.5
19,CCCCNC(=S)Nc1ccc(-c2nc3ccc(C)cc3s2)cc1,7.89
20,CCOc1nc(OCC)c2cnn(C)c2n1,8.24
21,O=C(c1cnc2c(c1)COc1ccc(Cl)cc1-2)c1ccccc1O,0.0871
22,O=c1cc(CN2CCN(c3ccc(O)cc3)CC2)nc2scc(-c3ccccc3)n12,13.3
23,Cn1ncc2c(O/N=C(\N)c3ccc(C(F)(F)F)cc3)ncnc21,9.69

row,Compound,"hERG current change (%, negative = inhibition) at 1uM [%]"
1,CCOc1ccc(S(=O)(=O)N2CCc3ccccc3C2)cc1,12.3
2,CCOc1c(Cl)cc(CNCC(C)C)cc1OC.Cl,2.77
3,CN(C)c1ccc(C(=S)N2CCCCC2)cc1,9.84
4,Fc1cccc(CNC2CCN(CCc3ccccc3)CC2)c1,3.85
5,Cc1ccc(-n2c(C)cc(/C=N/NC(=O)CN(c3ccc(C)cc3C)S(C)(=O)=O)c2C)cc1,2.6
6,CCOc1cc2c(cc1OC)C(c1cccc([N+](=O)[O-])c1)NCC2 (stereo not shown),1.03
7,COC(=O)C1CCN(C(=O)COC(=O)Cn2cnnn2)CC1,19.9
8,CCN(CC)C(=O)c1ccc(NS(=O)(=O)c2ccccc2)cc1,11.5
9,Cc1ccc(S(=O)(=O)NC(CC(=O)O)c2cccs2)cc1 (stereo not shown),15.8
10,COc1ccc(C(=O)NC(=S)N2CC(C)OC(C)C2)cc1 (stereo not shown),7.17
11,CN(C)/C=N/c1cc(=O)n(C)c(=O)n1CC1CC1,17.5
12,Cc1ccc(/C=N\NC(=O)Cc2cccn2C)o1,7.93
13,O=C(CN1CCCCCC1)N1c2ccccc2Sc2ccccc21,19.8
14,O=C(CSc1ncn[nH]1)c1cccc([N+](=O)[O-])c1,11.5
15,CCOC(=O)N1CCN(CC(=O)Nc2sccc2C#N)CC1,4.5
16,O=C(Nc1nccs1)C1C2/C=C\CCCCC21 (stereo not shown),10.3
17,C[C@@]1([C@@H](NC(=O)c2cccs2)c2ccc(-c3ccccc3)cc2)C[C@H]1C1CCCCC1,16.3
18,Cn1c(N)c(C(=O)Nc2ccc3ccccc3c2)sc1=S,2.05
19,CC(C)N(Cc1ccccc1)C(=O)COC(=O)c1ccc(O)cc1,6.51
20,Cc1ccc2c(CN3CCN(Cc4ccccc4)CC3)cc(=O)oc2c1,-84
21,COn1cnnc1-c1ccccc1,6.55
22,CC(NC(=O)C(=O)NCCN1CCN(C(=O)c2ccc([N+](=O)[O-])cc2)CC1)c1ccccc1 (stereo not shown),-67.8
23,COc1ccc(NCc2nnc(SCC(=O)NNC(=O)c3ccc(C)cc3)n2C)cc1,6.44

row,Compound,"hERG current change (%, negative = inhibition) at 1uM [%]"
1,O=[N+]([O-])c1ccc(COc2ccc(CNc3ccccc3)cc2)cc1,10.6
2,Cc1ccc(/C=N/Nc2nc(N3CCOCC3)nc(N3CCOCC3)n2)o1,10.6
3,CCN1CCN(C(=O)CN(C)S(=O)(=O)c2cc(C)ccc2OC)CC1,10.4
4,COc1ccc(N2CCN(S(=O)(=O)c3cccc(C(F)(F)F)c3)CC2)cc1,3.05
5,O=C(Nc1ncccc1O)c1cccc(S(=O)(=O)N2CCCc3ccccc32)c1,7.7
6,COc1ccccc1N1CCN(Cc2ccc(Br)cc2)CC1.O=C(O)C(=O)O,-6.63
7,CCOC(=O)c1ccc2c(c1)N(Cc1ccccc1C)C(=O)c1ccccc1S2=O (stereo not shown),-1.62
8,Cc1nn(CCCC(=O)NCCCN2CCN(C)CC2)c(=O)c2c1sc1ccccc12,15.1
9,COCc1ccc(-c2c(-c3cc(OC)cc(OC)c3)oc(=O)c3cc(OC)c(OC)cc23)cc1,7.32
10,CCCCC(=O)Nc1ccc(C(=O)Nc2ccc(S(=O)(=O)N3CCCC3)cc2)cc1,13.5
11,C/C=N/NC(=O)CCCC(=O)N/N=C/C,2.51
12,O=C(NC1CCCCC1)C1CCC(=O)N(C2CC2)C1 (stereo not shown),15.5
13,Cc1ccc(NC2CCCN(C(=O)C3CCCC3)C2)cc1C (stereo not shown),17.9
14,CCn1ccnc1CNC(=O)c1ccc(OC2CCN(C(=O)COC)CC2)cc1,16
15,CN1CCc2c(sc3c2C(=O)NC(/C=C\c2ccccc2)N3)C1 (stereo not shown),-6.22
16,O=C(/C=C/c1ccc2c(c1)OCCO2)N1CCN(c2ccc(F)cc2)CC1,13.8
17,CCN(CC(=O)Nc1sc2c(c1C#N)CCCC2)Cc1nc2ccccc2c(=O)[nH]1,10.8
18,CCCCOC(=O)Nc1nnc(Cc2ccc(Cl)cc2)s1,9.6
19,O=c1c2cn[nH]c2nc(SCc2ccccc2F)n1-c1ccc(Br)cc1,9.14
20,COc1ccccc1CNC(=O)CCNS(=O)(=O)c1ccc2[nH]c(=O)oc2c1,12.8
21,CCCCn1nnnc1SCC(=O)NCc1ccco1,8.51
22,Fc1ccc2c(c1)C(c1ccc(N3CCOCC3)cc1)=NNC(c1cccs1)=N2,6.09
